Experimental findings from the supplement of paper PMC10670038 are described below.

The structures appear in SMILES notation. Where a name gives a salt, the structure may show the parent alone. ± gives the standard deviation of the averaged measurements. Over roughly 2,000 compounds, “relative cell viability vs DMSO, compound + 0.2 uM CuET” has its median near 1; the lowest 2% begin near 0.25. This is one part of the list.

This assay concerns TE10. Kind of assay: relative cell viability vs DMSO, compound + 0.2 uM CuET (fraction); TE10 is an esophageal squamous carcinoma line; higher = less cytotoxic. To be noted: 2 µM; co-treatment: CuET (bis(diethyldithiocarbamate)copper) 0.2 uM; 48 h. On the procedure: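 TE10 ESCC cells (1,000/well, 384-well plates) were treated with Selleck bioactive library compounds at 2 uM combined with 0.2 uM CuET (copper diethyldithiocarbamate) for 48 h. Viability was read by CellTiter-Glo and expressed relative to DMSO wells. Two technical replicates (A, B).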
On to `CCn1cc(C(=O)O)c(=O)c2ccc(C)nc21` [Nalidixic acid], for which the relative cell viability was found to be 1.12 ± 0.059. As to `CN(C)c1ccc(C(=O)NCCCCCCC(=O)NO)cc1`, the relative cell viability was determined as 0.322 ± 0.042. Consider `CCO[C@@H]1OC(=O)C[C@@H]1NC(=O)[C@@H]1CCCN1C(=O)[C@@H](NC(=O)c1ccc(N)c(Cl)c1)C(C)(C)C`, for which the relative cell viability worked out at 1.08 ± 0.081.

Consider `O=C(CCCN1CC=C(n2c(=O)[nH]c3ccccc32)CC1)c1ccc(F)cc1` [Droperidol], for which the relative cell viability amounted to 1.1 ± 0.06. As for `COc1nc(C)nc(Cl)c1NC1=NCCN1` [Moxonidine], the relative cell viability amounted to 0.994 ± 0.034. Under `Cc1ccc(NC(=O)c2ccc(CN3CCN(C)CC3)cc2)cc1Nc1nc(-c2cccnc2)cs1` [Masitinib (AB1010)] stands 1.2 ± 0.03; under `CCCC[C@@H](C=O)NC(=O)[C@H](CC(C)C)NC(=O)OCc1ccccc1` [Calpeptin], 1.12 ± 0.036; under `O=C(Nc1cc(C(F)(F)F)ccc1N1CCCCC1)c1ccncc1`, 1.073 ± 0.0082. With `Cc1cc(Cn2cnc3c2CC(C(=O)O)N(C(=O)C(c2ccccc2)c2ccccc2)C3)ccc1N(C)C` (centres undefined), the relative cell viability was found to be 1.12 ± 0.098. Next, `Cc1ccc(S(=O)(=O)NC(=O)NN2CC3CCCC3C2)cc1` (centres undefined) [Gliclazide]: 1.12 ± 0.047; `O=C(O)CCNc1cc(N2CCc3ccccc3CC2)nc(-c2ccccn2)n1`: 0.765 ± 0.0059; `Cc1cc([N+](=O)[O-])ccc1NS(=O)(=O)c1cc(Cl)ccc1Cl`: 0.954 ± 0.1.

As to `COc1ccc(COc2ccc(Cc3cnc(N)nc3N)cc2OC)cc1`, the relative cell viability is 1.024 ± 0.0044. Under `Cc1ccc(C(=O)c2cc(O)c(O)c([N+](=O)[O-])c2)cc1` [Tolcapone] stands 1.08 ± 0.18. Next, `COc1ccc2[nH]cc(CCNC(C)=O)c2c1` [Melatonin]: 1.12 ± 0.061; `O=C([O-])c1ccccc1O.[Na+]` [Sodium salicylate]: 1.15 ± 0.069. As to `C=CC[C@@H]1/C=C(\C)C[C@H](C)C[C@H](OC)[C@H]2O[C@@](O)(C(=O)C(=O)N3CCCC[C@H]3C(=O)O[C@H](/C(C)=C/[C@@H]3CC[C@@H](O)[C@H](OC)C3)[C@H](C)[C@@H](O)CC1=O)[C@H](C)C[C@@H]2OC` [Tacrolimus (FK506)], the relative cell viability was determined as 1.07 ± 0.11. On to `O=C(N/N=C/c1ccc(O)c(O)c1)c1cc2ccccc2cc1O` [Dynasore], for which the relative cell viability was 0.85 ± 0.071.

For `CN(C)Cc1cccc(N=C(c2ccccc2)c2c(O)[nH]c3cc(C(N)=O)ccc23)c1`, the relative cell viability turned out to be 0.952 ± 0.014. Next, `CCN(CC)CC#CCOC(=O)C(O)(c1ccccc1)C1CCCCC1` (centres undefined) [Oxybutynin chloride]: 0.994 ± 0.084; `CCN(CC)CC#CCOC(=O)C(O)(c1ccccc1)C1CCCCC1` (centres undefined) [Oxybutynin]: 0.995 ± 0.059. Turning to `O=C(Cc1cccc(OC(F)(F)F)c1)Nc1ccc(CCCCc2nnc(NC(=O)Cc3ccccn3)s2)nn1`, the relative cell viability turned out to be 0.501 ± 0.083. `Cc1ncc([N+](=O)[O-])n1CCO` [Metronidazole]: the relative cell viability was determined as 1.079 ± 0.0041.

On to `CC(=O)O/N=C1\C(=O)N(Cc2cc(Cl)ccc2Cl)c2ccc(Cl)cc21`, for which the relative cell viability came to 1 ± 0.055. Under `CCN(Cc1ccncc1)C(=O)C(CO)c1ccccc1` (centres undefined) [Tropicamide] stands 1.1 ± 0.071; under `CCN1CCN(C(=O)N[C@@H](C(=O)N[C@@H]2C(=O)N3[C@@H]2SC(C)(C)[C@@H]3C(=O)O)c2ccccc2)C(=O)C1=O` [Piperacillin Sodium], 1.34 ± 0.12; under `CO[C@@H]1[C@@H](OC(N)=O)[C@@H](O)[C@H](Oc2ccc3c(O)c(NC(=O)c4ccc(O)c(CC=C(C)C)c4)c(=O)oc3c2C)OC1(C)C` [Novobiocin Sodium], 0.877 ± 0.068. Under `O=Nc1c(-c2c(O)[nH]c3cc(Br)ccc23)[nH]c2ccccc12` stands 1.083 ± 0.0023; under `CN(NC(=O)CC(=O)NN(C)C(=S)c1ccccc1)C(=S)c1ccccc1` [Elesclomol (STA-4783)], 0.0573 ± 0.0087; under `CC(C)C[C@H](NC(=O)[C@H](CCc1ccccc1)NC(=O)CN1CCOCC1)C(=O)N[C@@H](Cc1ccccc1)C(=O)N[C@@H](CC(C)C)C(=O)[C@@]1(C)CO1` [Carfilzomib (PR-171)], 0.198 ± 0.019. Under `COc1ccc(-n2c(C)c([N+](=O)[O-])c3ccc(O)cc32)cc1` stands 1.031 ± 0.0057; under `O=S(=O)(c1ccccc1)c1cnc2c(N3CCNCC3)cccc2c1`, 1.06 ± 0.037; under `NC(=O)N/N=C/c1ccc([N+](=O)[O-])o1` [Nitrofural], 1.3 ± 0.033. With `O=C(O[C@H]1CN2CCC1CC2)N1CCc2ccccc2[C@@H]1c1ccccc1` [Solifenacin succinate], the relative cell viability is 1.22 ± 0.053. Next, `CC(=O)OCOC(=O)CN(CC(=O)OCOC(C)=O)c1ccccc1OCCOc1ccccc1N(CC(=O)OCOC(C)=O)CC(=O)OCOC(C)=O`: 0.6484 ± 0.0064. Under `O=C(c1ccc(F)cc1)N1CCCC(c2nc(-c3ccc(F)cc3)no2)C1` (centres undefined) stands 1.12 ± 0.22; under `CN1CCCC(n2nc(Cc3ccc(Cl)cc3)c3ccccc3c2=O)CC1` (centres undefined) [Azelastine HCl], 1.02 ± 0.069; under `CC1=CC(=O)NS(=O)(=O)O1` [Acesulfame Potassium], 1.06 ± 0.05. `CN(C)CCC[C@@]1(c2ccc(F)cc2)OCc2cc(C#N)ccc21` [Escitalopram Oxalate]: the relative cell viability was 1 ± 0.086. For the compound `CCCC(=O)Nc1ncnc2c1ncn2[C@@H]1O[C@@H]2COP(=O)(O)O[C@H]2[C@H]1OC(=O)CCC` [Dibutyryl-cAMP (Bucladesine)], the relative cell viability is 1.15 ± 0.072. On to `CC(C)C[C@@H](C=O)NC(=O)[C@H](CC(C)C)NC(=O)[C@H](CC(C)C)NC(=O)OCc1ccccc1`, for which the relative cell viability was 0.223 ± 0.006. Next, `CCN(CC)Cc1ccc2cc(COC(=O)Nc3ccc(C(=O)NO)cc3)ccc2c1` [Givinostat (ITF2357)]: 0.192 ± 0.018; `CC(=O)Oc1cccc2c1C(=O)c1c(OC(C)=O)cc(C(=O)O)cc1C2=O` [Diacerein]: 1.13 ± 0.053; `CC(C)(C#N)c1ccc(N2C(=O)OCc3cnc4ccc(-c5cnc6ccccc6c5)cc4c32)cc1`: 0.296 ± 0.035. Under `N=C(N)NC(=N)N1CCOCC1` [Moroxydine HCl] stands 1.17 ± 0.034; under `CCCC(=O)O[C@]1(C(=O)COC(C)=O)CC[C@H]2[C@@H]3C[C@H](F)C4=CC(=O)C=C[C@]4(C)[C@@]3(F)[C@@H](O)C[C@@]21C` [Difluprednate], 1.1 ± 0.07. Next, `COc1ccc(NS(=O)(=O)c2ccc(N)cc2)nn1` [Sulfamethoxypyridazine]: 1.13 ± 0.041. In the case of `Nc1ccc(C(=O)NCC(=O)O)cc1` [4-Aminohippuric Acid], the relative cell viability worked out at 1.09 ± 0.062. Under `CNc1nc(Nc2cnn(C3CCN(C4COC4)CC3F)c2Cl)ncc1C(F)(F)F` (centres undefined) stands 1.195 ± 0.0015.
